Out of some 340,000 compounds screened, about 6,900 (2%) were called active. Cut-off read from the data, not from the text of the source: active = inhibition above about 30%; inactive = below that, where a call was filed. The list shows a part of the results, in another mix than the full data. The source gives no active or inactive call for entries shown without one.
The compounds below were run against D(2) dopamine receptor (Homo sapiens) (UniProt P14416) (assay: HTS Assay for Allosteric Antagonists of the Human D2 Dopamine Receptor: Primary Screen for Antagonists). Settings: HEK293 TREx D2 cells, calcium flux, dopamine EC80; at 10 µM; stronger effect = higher value.
UniProt P14416, sequence (P14416 whole entry, looked up): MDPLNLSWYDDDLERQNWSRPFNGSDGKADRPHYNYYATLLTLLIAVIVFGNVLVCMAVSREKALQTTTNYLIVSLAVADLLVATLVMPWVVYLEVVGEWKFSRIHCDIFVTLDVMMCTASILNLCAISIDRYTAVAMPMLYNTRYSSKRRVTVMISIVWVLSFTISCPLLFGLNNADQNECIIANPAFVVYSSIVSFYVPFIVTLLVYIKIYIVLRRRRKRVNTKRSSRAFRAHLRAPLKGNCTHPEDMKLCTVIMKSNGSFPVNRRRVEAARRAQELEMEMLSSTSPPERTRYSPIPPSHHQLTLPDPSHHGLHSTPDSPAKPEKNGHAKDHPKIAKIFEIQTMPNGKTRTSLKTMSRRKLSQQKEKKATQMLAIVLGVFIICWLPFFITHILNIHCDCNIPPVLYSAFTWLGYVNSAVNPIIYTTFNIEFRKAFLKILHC
How it was run: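 Calcium flux kinetic readout in an inducible HEK293 TREx D2 line plated overnight at 30 C. After 180 s compound exposure, an EC80 dopamine challenge follows with another 180 s kinetic read to detect antagonism.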
Note: 0% is about no effect.

Row | SMILES | inhibition
1 | COc1ccc(NC(=O)C2CCCN(c3ncnc4c3nc3n4CCCCC3)C2)c(OC)c1 (configuration not stated) | -2.08%
2 | Cc1cc(Br)ccc1NC(=O)Cn1cc(S(=O)(=O)N2CCN(c3ccccc3F)CC2)c2ccccc2c1=O | 5.65%
3 | COc1ccc(NC(=O)c2ccc3c(SCC(=O)O)c4c(nc3c2)CCCC4)c(OC)c1 | 9.33%
4 | CCc1ccc(NC(=O)CSc2ccc(-c3ccccn3)nn2)cc1 | -3.23%
5 | O=C(NCCCN1CCN(c2ccc(F)cc2)CC1)c1cnn(-c2ccc(F)cc2)c1-n1cccc1 | 1.57%
6 | Cc1cccc(-c2nc3c4ccccc4n(Cc4cccc(Cl)c4)c(=O)n3n2)c1 | -18.6%
7 | O=C(CN1C(=O)COc2ccc(S(=O)(=O)N3CCOCC3)cc21)N1CCN(c2cccc(Cl)c2)CC1 | 0.449%
8 | COc1cccc(C(=O)Nc2cccc(-c3cn4ccsc4n3)c2)c1OC | -1.62%
9 | CCCCS(=O)(=O)CC(O)CSc1nc(-c2ccc(C)cc2)cc(-c2ccccc2)c1C#N (configuration not stated) | 3.34%
10 | CCOC(=O)/C(C#N)=C/c1ccc(-c2ccc(Br)cc2)o1 | 2.34%
11 | O=C(Nc1ccc(F)cc1F)c1cc(-c2ccc(Cl)cc2)on1 | 23%
12 | CCOC(=O)c1ccc(NC(=O)CCn2c(=O)c3cccn3c3cccnc32)cc1 | 4.92%
13 | COc1ccc(-c2nnc(SCC(=O)Nc3cc(C)on3)o2)cc1 | active: 35.6%
14 | CCN(CC)C(=O)Cn1c(=O)n(-c2ccc(C)c(C)c2)c(=O)c2c3c(sc21)CCCCC3 | 13.7%
15 | CCc1cccc(NS(=O)(=O)c2ccc(-n3cccn3)cc2)c1 | 10.4%
16 | CCOc1cccc(C2c3[nH]c4ccccc4c3CCN2C(=O)CSCc2ccc(F)cc2)c1 (configuration not stated) | 11.8%
17 | Cc1ccc2nc(COc3ccccc3NC(=O)c3ccccc3F)cc(=O)n2c1 | -5.26%
18 | Cc1ccc2c(c1)c(CC(=O)Nc1ccc(C)c(F)c1)c(C(=O)O)n2C | -1.7%
19 | CCc1cccc(NC(=O)C2Cc3ccccc3N2C(=O)c2ccccc2)c1 (configuration not stated) | -11.5%
20 | NC(=O)Cn1c(=O)n(CCCCCC(=O)NCc2ccc(F)cc2)c(=O)c2sccc21 | -2.81%
21 | O=C(C1COc2ccccc2O1)N(Cc1cccnc1)c1nc2c(Cl)cccc2s1 (configuration not stated) | 9.98%
22 | COc1ccc(OC)c(NC(=O)CSc2ncc3c(n2)-c2ccccc2N(C)S3(=O)=O)c1 | -7.4%
23 | CCCNC(=O)c1ccc(-c2nc(CS(=O)(=O)c3ccc(C)cc3)c(C)o2)cc1 | 0.0058%
24 | CCOC(=O)N1CCN(Cc2nc3cc(NC(=O)C(C)C)ccc3n2C(C)C)CC1 | -10.6%

Row | SMILES | inhibition
25 | c1ccc(CCCCNCC2COc3ccccc3O2)cc1 (configuration not stated) | active: 95.9%
26 | O=C(c1ccc(F)cc1)N1CCC(c2nc(-c3ccc(S(=O)(=O)N4CCCC4)cc3)no2)CC1 | 1.59%
27 | COc1ccccc1N(CC(=O)Nc1ccc2c(c1)OCO2)S(=O)(=O)c1ccc(C)cc1 | -0.187%
28 | O=C(Cn1cnc2onc(-c3ccc(F)cc3)c2c1=O)Nc1ccc(F)c(Cl)c1 | 0.221%
29 | O=C(CN1c2ccccc2S(=O)(=O)c2ccccc21)Nc1ccccc1Cl | 5.39%
30 | CCOc1ccc(S(=O)(=O)c2cn(Cc3ccccc3C)c3ccc(OC)cc3c2=O)cc1 | -5.85%
31 | CCC(=O)NC1CC2CCCC(C1)N2Cc1ccc(C)cc1 (configuration not stated) | active: 93.4%
32 | CCc1nn(CC(=O)NCCCN2CCN(CC)CC2)c(=O)c2cc3occc3n12 | -4.21%
33 | CCCOc1ccc(-c2nonc2NC(=O)c2oc3ccc(Cl)cc3c2C)cc1OCCC | 5.52%
34 | COc1ccc(NC(=O)c2ccc(OCC3CCCO3)cc2)cc1Cl (configuration not stated) | active: 47.4%
35 | O=C(/C=C/c1ccc(N2CCC(c3ccccc3)=N2)cc1)c1ccccc1 | active: 32.7%
36 | Cc1nn(C)c2c1c(C(F)(F)F)cc(=O)n2C(C)C(=O)NCCc1ccccc1 (configuration not stated) | 1.05%
37 | O=C(Nc1nc2n(n1)C(c1ccc(Cl)cc1)C=C(c1ccccc1)N2)c1ccco1 (configuration not stated) | 4.04%
38 | COc1ccc(CCNC(c2ccc(F)cc2)c2nnc(-c3ccccc3Cl)o2)cc1OC (configuration not stated) | 4.02%
39 | COc1ccc2c(Sc3ccc(C)cc3)c(C(=O)NCCc3ccccc3)[nH]c2c1 | -5.64%
40 | COc1ccc(-c2c3c(=O)n(C)c(=O)n(C)c3c3n2-c2ccccc2NC3c2ccc(O)cc2O)cc1 (configuration not stated) | -11%
41 | Cc1cc(OCCCn2c(CCNC(=O)C3CCCCC3)nc3ccccc32)ccc1Cl | 12.7%
42 | COc1ccc(N(CC(=O)Nc2cccc(C(C)=O)c2)S(=O)(=O)c2ccccc2)c(OC)c1 | 10.8%
43 | OCc1cnc(SCc2ccc(F)cc2)n1Cc1ccc(F)cc1 | 16.8%
44 | O=C(CSc1nc(-c2cccs2)nc2cc(=O)[nH]n12)Nc1cccc(C(F)(F)F)c1 | 2.52%
45 | CCOCc1c(C(=O)N2CCN(CC(=O)Nc3ccc(F)cc3)CC2)oc2ccccc12 | active: 71.7%
46 | O=C(CSc1n[nH]c(-c2ccccc2)n1)N1CCN(c2ccccc2F)CC1 | 3.78%
47 | COc1cccc(NC(=O)c2sc3nc(C)c(C(=O)Nc4ccc(Cl)cc4)c(-c4ccc(Br)cc4)c3c2N)c1 | -15.3%

Source: PubChem BioAssay AID485344 (National Center for Advancing Translational Sciences (NCATS), 2010)
